# PubChem BioAssay AID602179 (National Center for Advancing Translational Sciences (NCATS), 2012)
# Among all 390,000 compounds or so, about 360 (0.092%) were called active. This list was built around the results that the source calls inconclusive (neither active nor inactive); the mix of calls is not that of the screen. The call rests on the fitted dose curve; in most records, active means well fitted inhibition curve with a large enough effect; inconclusive means small, poorly fitted or top-dose-only effect; inactive means no such curve, though single readings can be large or run the other way. Where the call is inconclusive, the potency comes from a doubtful curve fit.
# Biological target: Isocitrate dehydrogenase [NADP] cytoplasmic (Homo sapiens) (UniProt O75874)
# Test: qHTS for Inhibitors of mutant isocitrate dehydrogenase 1 (IDH1): qHTS; further: nearly all actives have a fitted effect of over 65% in size
# Conditions: IDH1-R132H enzyme, NADPH consumption, diaphorase/resazurin fluorescence; series mostly up to 76.6 µM; activity change, negative = inhibition: at the top concentration
# Outline: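 IDH1-R132H (0.5 ug/mL dispensed) in pH 7.5 Tris buffer was preincubated 30 min with compound, then given a substrate mix of 0.016 mM NADPH and 2 mM alpha-KG for 80 min at room temperature; remaining NADPH was read by diaphorase/resazurin fluorescence.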
# On the % scale 0 is the no-effect control and ±100 the full control effect; potency means the concentration at half of the fitted maximal effect; tags describe the fitted curve by direction and shape.
Structure (SMILES),"activity change, negative = inhibition",Potency
CC1=C([N+](=O)[O-])C(c2ccc3c(c2)OCO3)N(C)C(=O)N1C (configuration not stated),inactive: -3.5%,
COc1ccccc1N1CCN(C(=O)Cn2ncc3c2-c2cc(C)ccc2OC3)CC1,,"inconclusive: 63.1 µM [inhibitor, single point]"
Cc1nn(CCC(=O)N2CCN(S(=O)(=O)c3ccccc3)CC2)c(C)c1C,inactive: 0.858%,
COc1ccc(-c2c3c(nc4sc5c(=O)[nH]c(C)nc5c24)CCC3)cc1,,active: 20.7 µM
CCOC(=O)c1c(CSC(=N)N)n(C)c2cc(Br)c(OC(C)=O)cc12,,"inconclusive: 29.3 µM [inhibitor, full curve]"
COc1ccc(-c2cc(C(=O)Nc3ccc(S(=O)(=O)Nc4onc(C)c4C)cc3)c3ccccc3n2)cc1OC,,"inconclusive: 58.5 µM [inhibitor, single point]"
COc1cc2nc(C3CCC3)nc(N3CCN(c4ccccn4)CC3)c2cc1OC,,"inconclusive: 50.1 µM [inhibitor, single point]"
O=C(Nc1ccc(S(=O)(=O)Nc2ncccn2)cc1)c1ccc2ncsc2c1,,"inconclusive: 58.5 µM [inhibitor, single point]"
O=S(=O)(c1ccc(NC(=S)N/N=C/c2ccc(Oc3ccccc3)cc2)cc1)N1CCOCC1,,"inconclusive: 1.47 µM [inhibitor, full curve]"
CCCOC(=O)CSC1=C(C#N)C(c2ccccc2OCC)C(C#N)C(=O)N1 (configuration not stated),,"inconclusive: 26.1 µM [inhibitor, full curve]"
COC(=O)c1ccccc1NC(=O)Nc1nnc(N2CCC(C)CC2)s1,,inactive
c1cc(-c2sc(-c3ccncc3)c(-c3ccncc3)c2-c2ccncc2)ccn1,,"inconclusive: 46.5 µM [inhibitor, partial curve]"
CC1=NN(C(N)=S)C(=O)C1N=Nc1ccc(S(N)(=O)=O)cc1 (configuration not stated),,"inconclusive: 52.1 µM [inhibitor, single point]"
Cc1ccc(N2C(=O)CC(Nc3ccc(Cl)c(S(=O)(=O)N(C)C)c3)C2=O)c(C)c1 (configuration not stated),inactive: 0%,
Cc1ccc(-c2ccc(CCC(=O)O)n2-c2ccc(C(C)C)cc2)cc1,,"inconclusive: 70.8 µM [inhibitor, single point]"
CC(=O)N1CCCc2cc(S(=O)(=O)N3CCCC(C(=O)Nc4ccc(C)c(C)c4)C3)ccc21 (configuration not stated),,"inconclusive: 50.1 µM [inhibitor, single point]"
Cc1cccc(N(C(=O)c2snc(C(N)=O)c2N)C(C(=O)NC2CCCC2)c2ccc(C)o2)c1 (configuration not stated),,"inconclusive: 14.7 µM [inhibitor, full curve]"
CCn1c(SCC(=O)N2CCN(c3ccc(Cl)cc3)CC2)nc2ccccc2c1=O,,"inconclusive: 11.7 µM [inhibitor, full curve, poor fit]"
COC(=O)C(CC(C)C)N1CCC(=O)c2ccccc2S1(=O)=O (configuration not stated),inactive: 13.1%,
C[C@]12CCC[C@H](O1)c1c(cc3c(c1O)C(=O)c1c(O)cc(O)cc1C3=O)O2,,"inconclusive: 50.1 µM [inhibitor, single point]"
O=C(NCc1ccccn1)c1cccc(S(=O)(=O)Nc2ccc(SC(F)F)cc2)c1,,"inconclusive: 58.5 µM [inhibitor, partial curve, poor fit]"

Structure (SMILES),"activity change, negative = inhibition",Potency
CCCc1cc(N2CCN(c3cccc(C)c3C)CC2)n2cnnc2n1,inactive: 5.31%,
Cc1ccc(N(C)S(=O)(=O)c2cccc(C(=O)Nc3ccc(N4CCOCC4)cc3)c2)cc1,inactive: 2.14%,
Cc1c(OC(C(=O)O)c2ccccc2)ccc2c(-c3ccccc3)cc(=O)oc12 (configuration not stated),,"inconclusive: 11.7 µM [inhibitor, full curve]"
CCOc1ccc(NC(=O)CCN2CCN(c3ccccc3F)CC2)cc1,inactive: 4.69%,
Cc1ccc(-c2noc(-c3ccccc3NC(=O)C3CC(=O)N(c4ccc(C)cc4)C3)n2)cc1 (configuration not stated),,"inconclusive: 70.8 µM [inhibitor, single point]"
COc1cc(C(C)=O)ccc1OCC(=O)c1cc(C)n(C2CC2)c1C,inactive: -3.23%,
Cc1ccc(N(CC(=O)Nc2ccc(OC(F)(F)F)cc2)S(=O)(=O)c2c(C)noc2C)cc1,,"inconclusive: 44.7 µM [inhibitor, partial curve]"
C[C@H](CO)N1C[C@H](C)[C@@H](CN(C)Cc2ccccc2)Oc2c(NC(=O)C3CCCCC3)cccc2C1=O,,"inconclusive: 39.8 µM [inhibitor, partial curve]"
CCc1nnc2n1N(C(C)=O)C(c1ccc(C(C)(C)C)cc1)=C(C(C)=O)S2,,"inconclusive: 44.7 µM [inhibitor, partial curve, poor fit]"
COc1cccc(NC(=O)c2sc3nc(N4CCOCC4)c4c(c3c2N)CCCC4)c1,,"inconclusive: 16.5 µM [inhibitor, full curve]"
CCOC(=O)c1cc2c(=O)n3ccccc3nc2n(CC2CCCO2)c1=NC(=O)c1cc(C)cc(C)c1 (configuration not stated),,"inconclusive: 50.1 µM [inhibitor, single point]"
CCc1cccc(C)c1Nc1c(-c2cccc(O)c2)nc2sccn12,,"inconclusive: 50.1 µM [inhibitor, single point]"
CCOc1ccccc1C(=O)Nc1cc2c(cc1N1CCCCC1)n(C)c(=O)n2C,,"inconclusive: 22.4 µM [inhibitor, full curve]"
CCOc1ccccc1N(CC)C(=O)c1cc2c(=O)n(CC)c3ccccc3c2s1,,"inconclusive: 28.2 µM [inhibitor, partial curve, poor fit]"
COC(=O)c1cccc(N(C(=O)c2ccco2)C(C(=O)NC2CCCC2)c2ccco2)c1 (configuration not stated),,"inconclusive: 52.1 µM [inhibitor, partial curve]"
Cc1cccc(N2CC(C(=O)Nc3nc4ccc(S(C)(=O)=O)cc4s3)CC2=O)c1C (configuration not stated),inactive: -5.78%,
Cc1cccc(N(C(=O)c2ccco2)C(C(=O)NC2CCCC2)c2ccco2)c1C (configuration not stated),,"inconclusive: 39.8 µM [inhibitor, partial curve]"
C=CCc1ccccc1OCC(=O)N/N=C/c1ccc(OC(C)=O)cc1OC(C)=O,,"inconclusive: 58.5 µM [inhibitor, single point]"
CCOc1ccc(C2C3=C(CCCC3=O)Nc3ccc4ncccc4c32)cc1 (configuration not stated),,"inconclusive: 58.5 µM [inhibitor, single point]"
CC(C)(O)CCc1c(-c2ccc(O)cc2O)oc2c3c(cc(O)c2c1=O)OC(C)(C)C=C3,,"inconclusive: 70.8 µM [inhibitor, single point]"
NNC(=O)c1[nH]c2ccc(Br)cc2c1-c1ccccc1,,"inconclusive: 63.1 µM [inhibitor, single point]"

Structure (SMILES),"activity change, negative = inhibition",Potency
C[C@H](CO)N1C[C@H](C)[C@@H](CN(C)CC2CCOCC2)Oc2cc(C#Cc3ccccc3F)ccc2S1(=O)=O,,"inconclusive: 50.1 µM [inhibitor, single point]"
CC(C)C[C@H](NC(=O)c1nc[nH]c1C(=O)N[C@@H](CC(C)C)C(=O)OC(C)(C)C)C(=O)OC(C)(C)C,inactive: 0.188%,
Cc1ccc(-n2c(C)cc(C3N=C(N)Nc4nc5ccccc5n43)c2C)c(C)c1 (configuration not stated),,"inconclusive: 46.5 µM [inhibitor, partial curve]"
CCOC(=O)C1CCN(C(c2cccnc2)c2c(NC(=O)c3ccco3)sc(C)c2C)CC1 (configuration not stated),,"inconclusive: 41.4 µM [inhibitor, partial curve]"
CS(=O)(=O)N1CCC(N2CCN(Cc3ccc(F)cc3)C(=O)C2=O)CC1,,"inconclusive: 50.1 µM [inhibitor, single point]"
O=C(O)c1ccc(Cl)c(S(=O)(=O)N(Cc2ccccc2)c2ccccc2)c1,,"inconclusive: 58.5 µM [inhibitor, single point]"
Cc1ccc([C@@H]2C3COCC=C3C(C#N)=C(N)C2(C#N)C#N)o1 (some centres not stated),,"inconclusive: 28.2 µM [inhibitor, partial curve]"
COc1ccc(/C=N/NC(N)=S)cc1OC(=O)c1ccccc1,,"inconclusive: 52.1 µM [inhibitor, single point]"
Cn1c2ccccc2c(=O)c2c(=O)n(C3CCCCC3)c(-c3ccco3)nc21,,active: 26.1 µM
CC(C)Cn1c(N)c(S(=O)(=O)c2cccs2)c2nc3ccccc3nc21,,"inconclusive: 52.1 µM [inhibitor, partial curve, poor fit]"
CCc1c(C)sc(NC(=O)c2noc(C)c2[N+](=O)[O-])c1C#N,inactive: -0.983%,
O=C(Nc1ccc(S(=O)(=O)Nc2nccs2)cc1)c1cc(-c2ccccn2)nc2ccccc12,,"inconclusive: 58.5 µM [inhibitor, single point]"
CCOC(=O)N1CCN(C(=O)Cc2ccc(C)cc2)CC1,inactive: -3.26%,
COc1ccc(-c2nc(-c3ccc(O)cc3O)cs2)cc1OC,,"inconclusive: 52.1 µM [inhibitor, partial curve]"
CC(C)Cn1c(SCC(=O)N2CCc3ccccc3C2)nc2cc(Cl)ccc2c1=O,,"inconclusive: 50.1 µM [inhibitor, single point]"
C=C[C@]1(C)C=C2CC[C@H]3[C@@](C)(CCC[C@@]3(C)C(=O)O)[C@@H]2CC1,,"inconclusive: 50.1 µM [inhibitor, single point]"
O=C(Nc1nc2c(Br)cc(Br)cc2c(=O)s1)C1CCC1,,"inconclusive: 58.5 µM [inhibitor, single point]"
CC(C)c1c(Cl)c(O)c(-c2ccccc2)c(=O)n1-c1ccc(F)cc1,,"inconclusive: 52.1 µM [inhibitor, single point]"
CCCCN(C(=O)c1cccc2c(=O)c(C)c(-c3ccccc3)oc12)c1ccccc1,,"inconclusive: 52.1 µM [inhibitor, single point]"
Cc1cc(C)cc(Oc2nc3c(C)cccn3c(=O)c2/C=C(\C#N)C(=O)NC2CCS(=O)(=O)C2)c1 (configuration not stated),,"inconclusive: 63.1 µM [inhibitor, single point]"
